No constants are given. Whether binding was seen depends on the method and setting. For some of these results: Binding seen in cells or lysates may run through a third protein. Some results given as binding are weak or reduced against the parent protein; the word gives no strength. For some of these results: Sequences can lack the tags named with a protein.
How the values were obtained:
[1] = target: T1, FLAG-tagged-flotillin-1 (mouse) (UniProt O08917); assay: co-IP; HEK 293T cells transfected; 1% NP-40 lysis buffer with 150 mM NaCl; IP with anti-Flag beads, washes with 500 mM NaCl; immunoblot with anti-GFP and anti-Flag
T1 sequence: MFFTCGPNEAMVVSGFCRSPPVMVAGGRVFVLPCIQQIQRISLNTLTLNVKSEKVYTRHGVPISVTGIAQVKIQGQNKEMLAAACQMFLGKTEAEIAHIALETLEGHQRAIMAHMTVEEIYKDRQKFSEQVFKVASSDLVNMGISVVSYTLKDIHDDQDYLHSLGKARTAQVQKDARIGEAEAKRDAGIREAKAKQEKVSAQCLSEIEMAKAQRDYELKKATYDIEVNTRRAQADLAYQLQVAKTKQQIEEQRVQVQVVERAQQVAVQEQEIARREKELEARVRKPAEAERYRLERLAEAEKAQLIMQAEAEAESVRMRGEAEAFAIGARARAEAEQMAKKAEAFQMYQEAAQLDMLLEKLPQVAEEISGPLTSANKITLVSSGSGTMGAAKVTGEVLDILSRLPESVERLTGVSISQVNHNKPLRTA

[2] = target: T2, TRPV2 N-terminus (aa 1–387) fused to the GAL4 DNA binding domain (mouse) (UniProt Q9WTR1); assay: two-hybrid; Matchmaker GAL4 screen of a mouse DRG cDNA library (pGADT7, AH109) with the bait in pGBKT7 (Y187); mating, selection on TDO then QDO with X-α-Gal, 30°C
T2 sequence: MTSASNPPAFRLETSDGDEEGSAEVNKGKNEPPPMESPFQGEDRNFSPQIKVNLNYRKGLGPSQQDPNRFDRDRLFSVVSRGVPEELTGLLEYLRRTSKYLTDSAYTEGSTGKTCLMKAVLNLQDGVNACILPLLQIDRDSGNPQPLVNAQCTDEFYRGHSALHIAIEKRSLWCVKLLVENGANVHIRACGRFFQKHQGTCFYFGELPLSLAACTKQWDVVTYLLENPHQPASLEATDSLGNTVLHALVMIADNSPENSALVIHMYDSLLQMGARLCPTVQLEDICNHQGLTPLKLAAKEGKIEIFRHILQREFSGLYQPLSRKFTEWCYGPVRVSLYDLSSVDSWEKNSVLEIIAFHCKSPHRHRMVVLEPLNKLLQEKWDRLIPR

[3] = target: Flag-tagged full-length TRPV2 (rat) (UniProt Q9WUD2); assay: co-IP; HEK 293T cells transfected; 1% NP-40 lysis buffer with 150 mM NaCl; IP with anti-Flag beads, washes with 500 mM NaCl; immunoblot with anti-GFP and anti-Flag
[4] = target: T3, TRPV2, endogenous in mouse DRG neurons (mouse (endogenous in DRG neurons)) (UniProt Q9WTR1); assay: co-IP; endogenous proteins of mouse DRG neurons; IP with anti-TRPV2, anti-Flotillin-1 or IgG as a control, immunoblot
T3 sequence: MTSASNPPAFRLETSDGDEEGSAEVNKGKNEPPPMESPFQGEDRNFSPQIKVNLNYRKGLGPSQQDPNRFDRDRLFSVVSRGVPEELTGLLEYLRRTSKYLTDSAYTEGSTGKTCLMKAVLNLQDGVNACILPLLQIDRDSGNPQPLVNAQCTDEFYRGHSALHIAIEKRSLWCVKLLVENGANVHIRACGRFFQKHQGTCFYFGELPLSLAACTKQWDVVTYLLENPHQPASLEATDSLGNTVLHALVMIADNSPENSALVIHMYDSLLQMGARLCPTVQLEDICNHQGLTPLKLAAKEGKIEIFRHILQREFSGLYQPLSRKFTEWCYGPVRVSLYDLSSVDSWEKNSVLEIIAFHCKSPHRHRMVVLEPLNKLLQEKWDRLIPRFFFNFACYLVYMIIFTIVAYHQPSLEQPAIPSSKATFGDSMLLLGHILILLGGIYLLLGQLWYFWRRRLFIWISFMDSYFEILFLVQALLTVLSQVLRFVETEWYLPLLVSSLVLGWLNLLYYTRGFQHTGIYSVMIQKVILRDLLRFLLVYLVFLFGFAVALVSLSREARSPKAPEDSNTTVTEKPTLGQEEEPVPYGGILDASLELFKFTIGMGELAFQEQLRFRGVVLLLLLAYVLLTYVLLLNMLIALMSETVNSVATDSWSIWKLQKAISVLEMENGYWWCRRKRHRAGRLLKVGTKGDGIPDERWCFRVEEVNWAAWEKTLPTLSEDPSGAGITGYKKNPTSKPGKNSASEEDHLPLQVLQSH

[5] = target: T4, flotillin-1, endogenous in mouse DRG neurons (mouse (endogenous in DRG neurons)) (UniProt O08917); assay: as above
T4 sequence: T1 sequence

[6] = target: Flag-tagged full-length TRPV2 (rat) (UniProt Q9WUD2); assay: surface biotinylation with NeutrAvidin pull-down; HEK 293T cells co-expressing Flag-TRPV2 and flotillin-1-GFP; surface proteins labelled with Sulfo-NHS-LC-Biotin, isolated from lysates with NeutrAvidin agarose beads, immunoblot
Flag-tagged TRPV1 (rat) = Flag-tagged TRPV1 (rat) (UniProt O35433); assay: co-IP; HEK 293T cells transfected; 1% NP-40 lysis buffer with 150 mM NaCl; IP with anti-Flag beads, washes with 500 mM NaCl; immunoblot with anti-GFP and anti-Flag

In the case of “GFP-tagged TRPV2 pore region (aa 521–649) (from UniProt Q9WUD2 521-649) (domain or fragment)”, the binding [1] is reported as “no binding”.

For “GFP-tagged TRPV2 N-terminus (aa 1–387) (from UniProt Q9WUD2 1-387) (domain or fragment)”, the binding [1] was “binds”.

In the case of “GFP-tagged TRPV2 transmembrane domains 1–4 (aa 388–520) (from UniProt Q9WUD2 388-520) (domain or fragment)”, the binding [1] is reported as “binds”.

With “GFP-tagged TRPV2 C-terminus (aa 650–762) (from UniProt Q9WUD2 650-761) (domain or fragment)” the binding [1] was “no binding”.

B1: flotillin-1 library clone, amino acid residues 1–249, fused to the GAL4 activation domain (domain or fragment, UniProt O08917 1-249)
chain: MFFTCGPNEAMVVSGFCRSPPVMVAGGRVFVLPCIQQIQRISLNTLTLNVKSEKVYTRHGVPISVTGIAQVKIQGQNKEMLAAACQMFLGKTEAEIAHIALETLEGHQRAIMAHMTVEEIYKDRQKFSEQVFKVASSDLVNMGISVVSYTLKDIHDDQDYLHSLGKARTAQVQKDARIGEAEAKRDAGIREAKAKQEKVSAQCLSEIEMAKAQRDYELKKATYDIEVNTRRAQADLAYQLQVAKTKQQI
B1 was tested, and the binding [2] was “binds”.

B2: flotillin-1 SPFH domain (aa 1–189) fused with GFP (domain or fragment, UniProt O08917 1-189)
chain: MFFTCGPNEAMVVSGFCRSPPVMVAGGRVFVLPCIQQIQRISLNTLTLNVKSEKVYTRHGVPISVTGIAQVKIQGQNKEMLAAACQMFLGKTEAEIAHIALETLEGHQRAIMAHMTVEEIYKDRQKFSEQVFKVASSDLVNMGISVVSYTLKDIHDDQDYLHSLGKARTAQVQKDARIGEAEAKRDAGI
With B2 the binding [3] was “binds”.

B3: flotillin-1, endogenous in mouse DRG neurons (protein, UniProt O08917 1-428)
chain: T1 sequence
With B3 the binding [4] was “binds”.

B4: TRPV2, endogenous in mouse DRG neurons (protein, UniProt Q9WTR1 1-756)
chain: T3 sequence
For B4, the binding [5] was “binds”.

B5: flotillin-1-GFP (protein, UniProt O08917 1-428)
chain: T1 sequence
With B5 the binding [6] was “binds”, the binding (Flag-tagged TRPV1 (rat)) was “no binding” and the binding [3] was “binds”.

B6: GFP-tagged flotillin-2 (protein, UniProt Q60634 1-428)
chain: MGNCHTVGPNEALVVSGGCCGSDYKQYVFGGWAWAWWCISDTQRISLEIMTLQPRCEDVETAEGVALTVTGVAQVKIMTEKELLAVACEQFLGKNVQDIKNVVLQTLEGHLRSILGTLTVEQIYQDRDQFAKLVREVAAPDVGRMGIEILSFTIKDVYDKVDYLSSLGKTQTAVVQRDADIGVAEAERDAGIREAECKKEMLDVKFMADTKIADSKRAFELQKSAFSEEVNIKTAEAQLAYELQGAREQQKIRQEEIEIEVVQRKKQIAVEAQEILRTDKELIATVRRPAEAEAHRIQQIAEGEKVKQVLLAQAEAEKIRKIGEAEAAVIEAMGKAEAERMKLKAEAYQKYGDAAKMALVLEALPQIAAKISAPLTKVDEIVVLSGDNSKVTSEVNRLLAELPASVHALTGVDLSKIPLIKNATGAQV
In the case of B6, the binding [3] is reported as “no binding”.

B7: flotillin-1 Flotillin domain (aa 190–427) fused with GFP (domain or fragment, UniProt O08917 190-427)
chain: REAKAKQEKVSAQCLSEIEMAKAQRDYELKKATYDIEVNTRRAQADLAYQLQVAKTKQQIEEQRVQVQVVERAQQVAVQEQEIARREKELEARVRKPAEAERYRLERLAEAEKAQLIMQAEAEAESVRMRGEAEAFAIGARARAEAEQMAKKAEAFQMYQEAAQLDMLLEKLPQVAEEISGPLTSANKITLVSSGSGTMGAAKVTGEVLDILSRLPESVERLTGVSISQVNHNKPLRT
For B7, the binding [3] was “no binding”.

Reference: article PMC7900159
